{"source": "PubChem BioAssay AID1346428", "about": "(National Center for Advancing Translational Sciences (NCATS), 2018)", "note": "Screen size: about 48,000 compounds; about 1,200 (2.5%) were called active. About 2% were inconclusive and are not listed.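 The calls were made as follows: active = activation of at least 60% and not above a set upper limit (about 1 call in 100 departs from these limits); inconclusive = activation of 40% to 60%, or above that upper limit; inactive = activation under 40%.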 The list shows a part of the results."}
{"biological_target": "Probable G-protein coupled receptor 32 (Homo sapiens) (UniProt O75388)", "sequence (O75388 whole entry, looked up)": "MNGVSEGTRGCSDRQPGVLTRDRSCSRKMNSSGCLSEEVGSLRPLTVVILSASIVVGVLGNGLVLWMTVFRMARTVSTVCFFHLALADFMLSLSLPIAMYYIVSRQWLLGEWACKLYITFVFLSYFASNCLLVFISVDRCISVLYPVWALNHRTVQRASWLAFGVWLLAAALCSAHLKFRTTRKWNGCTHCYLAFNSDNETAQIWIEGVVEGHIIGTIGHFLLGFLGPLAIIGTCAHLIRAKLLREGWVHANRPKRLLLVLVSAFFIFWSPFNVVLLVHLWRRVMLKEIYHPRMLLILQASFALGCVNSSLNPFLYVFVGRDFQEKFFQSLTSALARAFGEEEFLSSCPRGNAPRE", "test": "qHTS for Agonists of Human Resolvin D1 Receptor DRV1; also: 0% is about no effect", "conditions": "CHO-K1 GPR32 beta-arrestin PathHunter luminescence, 90 min; at 76.9 µM; hits give high values; zero percent set by DMSO-only wells", "summary_of_the_method": "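Readings come from a cell-based beta-arrestin complementation format: CHO-K1 GPR32 stable cells (2,500/well) treated 90 min with compounds, then beta-Gal substrate added for 1 h before chemiluminescence imaging.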"}
{"smiles": "COc1ccc(CN2C(=O)C(NC(=O)c3ccc(C)cc3)(C(F)(F)F)N=C2c2ccccc2)cc1", "note": "(stereo unspecified)", "activation": "inactive: -16%"}
{"smiles": "Cc1cc(Br)ccc1NC(=O)c1cc2c(s1)-c1ccccc1SC2", "activation": "inactive: -9.57%"}
{"smiles": "O=C(CCCn1c(=O)c2cccn2c2cccnc21)NCCc1ccc(Cl)cc1", "activation": "inactive: -10%"}
{"smiles": "COc1ccc(-c2nn(C)c3sc(C(=O)N4CCN(c5cccc(C)c5C)CC4)cc23)cc1OC", "activation": "inactive: -10.7%"}
{"smiles": "COc1ccc(NS(=O)(=O)c2nnc(NC(=O)c3ccccc3F)s2)cc1", "activation": "inactive: 13.5%"}
{"smiles": "CCOC(=O)N1CCc2c(sc3c2c(=O)n(-c2ccc(Cl)cc2)c(=O)n3CC(=O)c2ccc(F)cc2)C1", "activation": "inactive: -13%"}
{"smiles": "COc1ccccc1NC(=O)CSc1nc2c(oc3ccccc32)c(=O)n1-c1ccc(C)cc1", "activation": "inactive: 7.73%"}
{"smiles": "COc1cc(/C=C/c2nc(C#N)c(NC3CCCCC3)o2)cc(OC)c1OC", "activation": "inactive: -22.3%"}
{"smiles": "Cc1ccc(CNc2nc3c(S(=O)(=O)c4ccccc4)nnn3c3ccsc23)cc1", "activation": "inactive: 1.96%"}
{"smiles": "O=C(/C=C/c1cn(CC(O)CN2CCCCCC2)c2ccccc12)c1ccccc1", "note": "(stereo unspecified)", "activation": "inactive: 3.99%"}
{"smiles": "O=C(Nc1ccccc1C(=O)OCc1cc(=O)n2nc(C3CC3)sc2n1)c1cccc(Cl)c1", "activation": "inactive: -13%"}
{"smiles": "COc1ccc(C2c3c(-c4ccccc4O)n[nH]c3C(=O)N2Cc2ccco2)cc1", "note": "(stereo unspecified)", "activation": "inactive: -6.99%"}
{"smiles": "CCOC(=O)C1=C(CN2CCN(c3ccccc3)CC2)NC(=O)NC1c1ccc(C)cc1", "note": "(stereo unspecified)", "activation": "inactive: 4.62%"}
{"smiles": "COc1cccc(C(=O)NC(=O)Nc2ccc(-c3cc(C(F)(F)F)nn3-c3ccccc3)cc2)c1", "activation": "inactive: -5.54%"}
{"smiles": "Cc1sc2ncn(CC(=O)Nc3cccc(C(F)(F)F)c3)c(=O)c2c1S(=O)(=O)N1CCC(C)CC1", "activation": "inactive: -5.49%"}
{"smiles": "Cc1ccc(Cl)cc1NC(=O)Cn1c(=O)c(CNc2ccccc2)cc2cc3c(cc21)OCCO3", "activation": "inactive: -10.4%"}
{"smiles": "CCCCn1c(-c2ccc(S(=O)(=O)N3CCOCC3)cc2)csc1=Nc1ccccc1", "activation": "inactive: -8.33%"}
{"smiles": "COc1ccc(-c2c(C)nn3c4c(cnc23)C(=O)CC(c2ccc(C)cc2)C4)cc1", "note": "(stereo unspecified)", "activation": "inactive: -2.52%"}
{"smiles": "CCN(c1cccc(C)c1)S(=O)(=O)c1nnc(NC(=O)c2cccs2)s1", "activation": "active: 61.8%"}
{"smiles": "Cc1c(C(=O)Nc2ccccc2Br)oc2ccc(S(=O)(=O)N3CCCCC3)cc12", "activation": "inactive: 0.0871%"}
{"smiles": "Cc1cccc(Cn2c(CN3CCC(C(=O)NCCc4ccccc4)CC3)cc3ccccc32)c1", "activation": "inactive: -33.9%"}
{"smiles": "COc1ccc(C(=O)Nc2cc(C(F)(F)F)ccc2N2CCN(c3ccccc3)CC2)cc1OC", "activation": "inactive: -4.09%"}
{"smiles": "CCC(=O)Nc1nnc(S(=O)(=O)N(C)Cc2ccccc2)s1", "activation": "inactive: -8.67%"}
{"smiles": "CCOc1ccccc1NC(=O)c1cccc2c1C(=O)N(C1CCCCC1)C2", "activation": "inactive: -5.44%"}
{"smiles": "COc1cccc(NC(=O)Cn2c(=O)n(-c3ccc(CC(=O)NCC4CCCO4)cc3)c(=O)c3ccccc32)c1", "note": "(stereo unspecified)", "activation": "inactive: 0.35%"}
{"smiles": "CSc1ncc(Cl)c(C(=O)N(Cc2ccccc2Cl)C2CCS(=O)(=O)C2)n1", "note": "(stereo unspecified)", "activation": "inactive: 13.2%"}
{"smiles": "CCOc1ccc(C(=O)OCc2cc(=O)n3nc(C4CCCCC4)sc3n2)cc1", "activation": "inactive: 23.6%"}
{"smiles": "Cc1cc(C)cc(NC(=O)NCCn2nnc3cc(S(=O)(=O)N(C)C)ccc32)c1", "activation": "inactive: -3.99%"}
{"smiles": "COC(=O)c1cnn(-c2ccc(C(=O)Nc3cccc(C(C)=O)c3)cc2)c1N", "activation": "inactive: -4.15%"}
{"smiles": "CCOc1ccc(NC(=O)CC2C(=O)N(c3ccccc3)C(=O)N2CCc2ccc(OC)cc2)cc1", "note": "(stereo unspecified)", "activation": "inactive: -1.98%"}
{"smiles": "CCCCN(CC)CCNC(=O)Cn1cnc2sc(C)c(S(=O)(=O)N3CCC(C)CC3)c2c1=O", "activation": "inactive: 6.19%"}
{"smiles": "O=C1c2oc3ccccc3c(=O)c2C(c2ccc(Br)cc2)N1c1ccccn1", "note": "(stereo unspecified)", "activation": "inactive: -3.37%"}
{"smiles": "COc1ccc(Cn2c(C(=O)O)c(CNCc3cccc(OC)c3)c3ccc(C)cc32)cc1", "activation": "inactive: 9.39%"}
{"smiles": "O=C1CN(C(=O)Cc2ccc(F)cc2)C(c2ccccc2)c2cc(Br)ccc2N1", "note": "(stereo unspecified)", "activation": "inactive: -0.0388%"}
{"smiles": "Cc1ccc(NC(=O)Cn2nc(C)c3nn(-c4ccc(Cl)cc4)c(C)c3c2=O)cc1C", "activation": "inactive: -28.2%"}
{"smiles": "Cn1c(=O)oc2cc(S(=O)(=O)N3CCC(C(=O)NCc4ccccc4Cl)CC3)ccc21", "activation": "inactive: 2.15%"}
{"smiles": "CC(=O)c1ccc(N2CCN(S(=O)(=O)c3c(C)nc4sc(C)cn4c3=O)CC2)cc1", "activation": "inactive: -12%"}
{"smiles": "COc1ccc(N2C(=O)CSC23C(=O)N(CC(=O)NC2CCCCC2)c2ccccc23)cc1", "note": "(stereo unspecified)", "activation": "inactive: -23.5%"}
{"smiles": "CCc1nn(CC(=O)N2CCN(c3cccc(C)c3C)CC2)c(=O)c2cc3occc3n12", "activation": "inactive: -9.71%"}
{"smiles": "Cc1cccc(N2CCN(C(=O)C3CCC(CNS(=O)(=O)c4ccc(Br)s4)CC3)CC2)c1C", "note": "(stereo unspecified)", "activation": "inactive: -1.1%"}
{"smiles": "CCOC(=O)c1[nH]c(C)c(CCC(=O)Nc2c(C)cc(C)cc2C)c1C", "activation": "inactive: -6.02%"}
{"smiles": "CCCn1c(SCc2nc(-c3ccccc3C)no2)nnc1-c1ccc(Cl)cc1", "activation": "inactive: -1.12%"}
{"smiles": "Cc1cccc(OCc2cc(=O)n3c(-c4ccccc4)csc3n2)c1C", "activation": "inactive: 21%"}
{"smiles": "CCCCn1cc(S(=O)(=O)c2ccc(C)c(C)c2)c(=O)c2cc(F)c(N3CCN(C)CC3)cc21", "activation": "inactive: -11.5%"}
{"smiles": "NC(=O)CSc1oc(-c2ccco2)nc1S(=O)(=O)c1ccc(Br)cc1", "activation": "inactive: -20.7%"}
{"smiles": "Cn1c(CN2CCCCC2)nc2cc(NC(=O)c3cccc(Br)c3)ccc21", "activation": "inactive: -3.53%"}
{"smiles": "CCc1nnc(NC(=O)c2nc(S(=O)(=O)Cc3cccc(C)c3)ncc2Cl)s1", "activation": "inactive: 0.634%"}
{"smiles": "CCc1nn(CC(=O)NC(C)CCc2ccccc2)c(=O)c2cc3cc(F)ccc3n12", "note": "(stereo unspecified)", "activation": "inactive: -1.56%"}
{"smiles": "CCC(C(=O)Nc1ccccc1C(=O)OC)n1c(C)c2cnn(-c3ccccc3)c(=O)c2c1C", "note": "(stereo unspecified)", "activation": "inactive: 1.75%"}
{"smiles": "CCC(Oc1ccccc1)C(=O)Nc1ccc(O)c(-c2nc3cc(C)ccc3o2)c1", "note": "(stereo unspecified)", "activation": "inactive: -42.7%"}
{"smiles": "CCn1cc(C(=O)NCCCOC(C)C)c(=O)c2cc(S(=O)(=O)N3CCc4ccccc4C3)ccc21", "activation": "inactive: -19.7%"}
